Assay results from paper PMC10668032.
The list shows a part of the results. At the low end of the ranking the order means little.

These sequences were tested against SIX1-Q177R homeodomain (UniProt Q15475) (assay: universal protein binding microarray). Details: Universal all-10-mer PBM (8x60K, AMADID 030236), 300 nM GST-tagged protein, Alexa Fluor 488 anti-GST; buffer, salt, pH and temperature not stated; high values mean tight binding; most listed sequences are background and not binding sites; double strand, one strand shown.

Sequence	binding signal [E-score]
ACTGTGTC	0.155
TACTAATA	-0.138
GTTATCGA	-0.0482
AGATAGAC	0.154
ACGCGCGC	0.052
CATTATGG	0.00229
ACCCATGA	0.108
AATAGGGA	0.158
AGACGTCG	-0.164
ATATCCTA	-0.0312
AGCTCAGG	-0.118
ATGCAGGG	-0.00814
ACCTTTCA	-0.0295
AATCATCT	-0.028
CTCTACAA	-0.13
CTGTTGAA	-0.118
ACGAGACC	0.12
AGGTGACT	0.165
GCCGTTCC	0.0211
ATTGCCCC	-0.142
CAGTTGTC	-0.124
CACAGGGG	0.141
ATTGACGC	0.0242
CTAGGTGA	-0.0468
AATGGACG	-0.154

Sequence	binding signal [E-score]
GGATCGCC	0.102
AGAGAGTG	0.0559
CCCAACTA	0.0269
ATTCTCCG	-0.0859
CCGTTTGC	-0.225
ATCGACAT	-0.123
CTCTGGCA	-0.0398
GTGATGCA	-0.224
TATTTCAA	-0.188
CGAGCGAA	-0.168
AAGCACGT	0.1
ATTAGCTA	-0.0207
ACTTATAA	0.00439
CAGCGCTA	-0.201
CATCTAGA	-0.138
CCAGCCAC	0.104
GACACACA	0.334
CAATCGAC	-0.0797
CTCCTTGC	-0.129
ATGGCACA	0.018
AGTCGTAG	-0.0895
CGCATCCC	-0.0467
ACCATTTG	0.0664
ATGCTCAG	-0.192
CTTCTAAC	-0.0205

Sequence	binding signal [E-score]
ATAACCTC	-0.0498
GTCCCGAC	0.0284
CATCCACG	-0.0627
CCCGGTTA	0.0483
AGGTATGC	-0.0237
GTTTTAAA	-0.0963
GTACATCA	0.0697
AGATAGTG	0.0652
ATATGTAA	-0.227
TCACCGCA	-0.0456
ATAGCTGG	-0.108
GCAGATTA	-0.128
ATAATGTC	0.00056
GGATTATA	-0.00877
CGAAGCAG	-0.0995
AGAGCCCG	-0.124
CCGTTGTA	-0.157
CACTGCTG	0.0496
CAATGCCG	-0.146
ACCCTCTC	0.164
GATCGGAC	-0.174
ACAAGTCT	-0.239
ATAAAGAG	0.0902
AAACACGG	0.349
CAGAGAGG	-0.0662

Sequence	binding signal [E-score]
ATCGATGG	-0.189
GAAGGAAC	-0.0244
ACGAGCCC	0.0769
TCACTTAA	-0.124
CCGATTTC	-0.303
ATTCGCAC	0.0617
ATATCACC	0.0333
ACATCCAT	-0.223
GATCATAC	0.144
ACGCATTG	0.0238
CCTACGTA	-0.172
ATGTATAA	-0.0407
GGGAACTA	-0.0323
ATGTGGCC	-0.237
ACACTACC	0.421
TCTCAGAA	-0.196
AGTAGCTA	-0.0926
CAGTACGG	-0.0411
AGATCTAT	-0.108
ATTAGGGC	-0.206
ATAGATCA	-0.167
ATGTTCAA	-0.204
GCCGCTAC	-0.0679
AAGGCAGT	-0.216
ATACAAGG	-0.0921

Sequence	binding signal [E-score]
CTACATGA	-0.0286
AGGCACAT	-0.312
AGTGTGAT	0.223
CCGAGCCC	-0.104
ATGTTAGC	-0.118
GTAACTAA	0.0533
ACGTCGGA	0.032
GAACTGGC	-0.357
ATTATTTA	-0.169
TATCCACA	0.0551
GAAAACAC	0.383
GATAGCGC	-0.158
CTCTAGTC	-0.182
CATCTTTA	0.00882
ATTGATCC	0.187
GGAACTGA	-0.151
ACAGGATA	-0.0109
GACTGCGA	-0.13
TTATCGAA	-0.087
CGGGCCAC	-0.149
ATCTCCTG	-0.0623
GTGTACCA	0.445
AGAAAAAA	-0.284
AAAGCTAA	-0.199
TAGCCTAA	-0.0549

Sequence	binding signal [E-score]
CACAGATA	0.155
CACGGCCA	0.124
GATTATCA	0.0233
ATTCTAAA	-0.164
AGGTAAGG	-0.176
AGTCGCAC	0.0893
ATACATGC	-0.0223
ACACGTCA	0.323
CCCGACCG	0.0803
AGCAACAC	0.361
AACCGAAC	-0.0129
GTACGCCA	0.147
CAACTGCC	-0.309
ACGGTGCG	0.167
GACGGACA	0.112
CCCGCGAA	0.132
AGGCAAGC	-0.193
CCAGCTGG	0.263
AAACAGAC	-0.27
CGACCTGC	-0.163
AGGGATCC	0.212
ATGCTCCA	-0.124
ATTTGTGC	-0.232
ATGGGGGG	0.153
AAGTGTAC	0.391

Sequence	binding signal [E-score]
AGCTCGAC	-0.284
CTCCTAAG	-0.00275
ACCTACGA	0.0887
ATAAAATC	-0.151
ACTCATTA	-0.123
GTAATGGA	0.0835
GAATCGCA	-0.0637
CACCGAAG	0.283
CAATGCTA	-0.235
ACATTGGT	-0.188
AGACGCAC	0.0355
ATTGTCTA	-0.0366
CGAAAAAA	-0.133
GGCTCAAA	-0.142
AGACTTAT	-0.267
AATAATGA	-0.0786
CGCACATA	-0.047
CGACTCCC	0.263
GAGAGTGC	0.1
TAGGCCGA	-0.063
ACGAGGGG	0.208
CGCGGACG	-0.176
